Experimental data as given in PubChem BioAssay AID504332 (National Center for Advancing Translational Sciences (NCATS), 2011).
About 31,000 (8.9%) of roughly 350,000 compounds were called active. Inconclusive results, whose numbers are uncertain, are shown with a selection of clear calls. Calls come from the whole dose curve; as a rule, active = well fitted inhibition curve with a large enough effect; inconclusive = small, poorly fitted or top-dose-only effect; inactive = no such curve, though single readings can be large or run the other way. A potency beside an inconclusive call is a rough fit, not a confirmed value.

Target: Histone-lysine N-methyltransferase EHMT2 (Homo sapiens) (UniProt Q96KQ7)
UniProt Q96KQ7, sequence (Q96KQ7 whole entry, looked up): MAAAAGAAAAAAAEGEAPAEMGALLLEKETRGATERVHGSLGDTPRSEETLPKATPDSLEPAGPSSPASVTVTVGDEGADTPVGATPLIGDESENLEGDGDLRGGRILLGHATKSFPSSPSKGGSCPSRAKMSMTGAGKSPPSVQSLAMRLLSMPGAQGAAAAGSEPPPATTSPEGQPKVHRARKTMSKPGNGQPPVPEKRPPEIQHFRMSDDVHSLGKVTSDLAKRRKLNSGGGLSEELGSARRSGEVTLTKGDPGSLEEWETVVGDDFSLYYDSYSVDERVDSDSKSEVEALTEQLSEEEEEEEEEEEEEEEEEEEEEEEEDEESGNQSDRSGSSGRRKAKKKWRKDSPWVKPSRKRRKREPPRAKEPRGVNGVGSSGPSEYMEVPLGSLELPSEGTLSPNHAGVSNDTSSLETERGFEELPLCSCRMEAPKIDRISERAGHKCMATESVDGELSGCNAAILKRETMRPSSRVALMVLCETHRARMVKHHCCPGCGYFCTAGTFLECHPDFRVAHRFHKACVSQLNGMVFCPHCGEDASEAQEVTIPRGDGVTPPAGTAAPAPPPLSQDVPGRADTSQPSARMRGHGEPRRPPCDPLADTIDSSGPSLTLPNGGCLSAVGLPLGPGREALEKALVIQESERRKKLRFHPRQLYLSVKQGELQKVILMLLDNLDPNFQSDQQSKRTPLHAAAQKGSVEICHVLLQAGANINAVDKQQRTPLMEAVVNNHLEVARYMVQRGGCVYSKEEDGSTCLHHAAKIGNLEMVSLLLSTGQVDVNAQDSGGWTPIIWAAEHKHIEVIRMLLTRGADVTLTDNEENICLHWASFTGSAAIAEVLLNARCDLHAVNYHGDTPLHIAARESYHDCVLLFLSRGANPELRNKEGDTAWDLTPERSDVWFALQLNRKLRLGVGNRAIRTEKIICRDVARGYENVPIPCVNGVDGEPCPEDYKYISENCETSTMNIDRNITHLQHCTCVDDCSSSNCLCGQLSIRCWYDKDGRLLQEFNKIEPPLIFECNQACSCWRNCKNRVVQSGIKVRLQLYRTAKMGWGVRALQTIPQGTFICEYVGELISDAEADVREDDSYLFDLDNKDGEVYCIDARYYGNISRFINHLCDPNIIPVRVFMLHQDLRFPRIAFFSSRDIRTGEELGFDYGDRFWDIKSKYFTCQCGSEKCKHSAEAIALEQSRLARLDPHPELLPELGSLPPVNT
Assay: qHTS Assay for Inhibitors of Histone Lysine Methyltransferase G9a; note: nearly all actives have a fitted effect of over 75% in size
Conditions: G9a H3K9 monomethylation, AlphaScreen, 2 h; activity, negative = inhibition: at 59 µM (top of the series) unless noted
How it was run: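 Compounds were preincubated with 20 nM G9a for 15 min, after which biotinylated H3K9 peptide (500 nM) and SAM (20 uM) started a 2 h room-temperature reaction. Monomethylated product was quantified by antibody-based AlphaScreen chemiluminescence.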
% is set by controls: 0 for no effect and ±100 for the full control effect; potency is the fitted concentration of half-maximal effect; tags give direction and shape of the fitted curve.

Structure (SMILES) | Potency | activity, negative = inhibition
CC(C)CN(C(=O)COC(=O)c1ccc2ccccc2c1)c1c(N)n(Cc2ccccc2)c(=O)[nH]c1=O | inconclusive: 89.1 µM [inhibitor, single point] | –
COc1cc(OC)c(NC(=O)Nc2nnc(N(C)C3CCCCC3)s2)cc1Cl | inconclusive: 35.5 µM [inhibitor, partial curve, poor fit] | –
O=C(Nc1ccc2c(c1)OCO2)C1CCCN(c2nc3ccccc3s2)C1 (stereo unspecified) | active: 3.16 µM | –
COc1cccc(CN2CCN(C(=O)c3ccco3)CC2)c1 | active: 20 µM | –
COc1ccc(S(=O)(=O)n2nc(-c3ccc(Cl)cc3)cc2N)cc1OC | – | inactive: 14.2% [at 102 µM]
O=C(O)CCCCCNC(=O)CCn1cnc2ccccc2c1=O | – | inactive: 1.93% [at 102 µM]
COCC(C)OC(=O)/C(C#N)=C\c1coc2ccc(C)cc2c1=O (stereo unspecified) | inconclusive: 31.6 µM [inhibitor, single point] | –
COc1ccc(-c2nnc(SCC(=O)NC(=O)Cc3ccccc3)n2C)cc1 | inconclusive: 0.501 µM [inhibitor, partial curve, poor fit] | –
O=C(CCN1C(=O)c2ccccc2C1=O)Nc1nc2ccccc2s1 | inconclusive: 0.891 µM [inhibitor, partial curve, poor fit] | –
CC(=O)c1ccc(NC(=O)CN(C)S(=O)(=O)c2cc3c(cc2C)NC(=O)CO3)cc1 | – | inactive: -3.67%
CCN1CCC(N(Cc2ccc(F)cc2)C(=O)Nc2cc(C)ccc2C)CC1 | – | inactive: -29.4%
CCC(=O)Nc1nnc(-c2ccco2)o1 | active: 22.4 µM | –
CC1(C)Cc2c(sc(NC(=O)c3ccccc3Cl)c2C(=O)O)CO1 | inconclusive: 79.4 µM [inhibitor, single point] | –
CCOc1ccc2oc(C(=O)N(CC)CC(=O)Nc3ccc(NC(C)=O)cc3)c(C)c2c1 | – | inactive: -40.2% [at 12.7 µM]
COc1ccc(SN=C2C(C)=CC(=O)C=C2C)cc1 | active: 15.8 µM | –
COc1ccc(OC)c(CCNC(=O)c2ccc(CS(=O)(=O)c3ccc(Br)cc3)o2)c1 | inconclusive: 39.8 µM [inhibitor, partial curve, poor fit] | –
O=C(N/N=C/c1ccc2nccnc2c1)c1ccncc1 | inconclusive: 79.4 µM [inhibitor, single point] | –
N/C(=N\NC(=O)Nc1ccccc1)c1ccccn1 | inconclusive: 2.51 µM [inhibitor, full curve, poor fit] | –
O=C(Nc1ccc2c(c1)OCO2)c1ccc([N+](=O)[O-])cc1[N+](=O)[O-] | inconclusive: 79.4 µM [inhibitor, single point] | –
COc1ccc2nc(NC(=O)C3=NN(c4ccccc4)C(=O)CC3)sc2c1 | inconclusive: 39.8 µM [inhibitor, single point] | –
O=C(Nc1cccc(NC(=O)c2cccs2)c1)c1ccc([N+](=O)[O-])o1 | – | inactive: -15.9% [at 102 µM]
CCOc1c(CC2C(=O)Nc3ccc(Br)cc32)cccc1OC (stereo unspecified) | – | inactive: -17.6%
COc1ccc(CNC(=O)C2CCCCN2S(=O)(=O)c2ccc(F)cc2)cc1 (stereo unspecified) | – | inactive: 2.43%

Structure (SMILES) | Potency | activity, negative = inhibition
COc1ccc(S(=O)(=O)CC2(O)CCN(C(=O)CC(C)C)CC2)cc1 | – | inactive: 54.9% [at 102 µM]
CC(C)c1ccc(-c2c(C#N)c(N)nc(SCC(=O)N3CCCCC3)c2C#N)cc1 | inconclusive: 39.8 µM [inhibitor, single point] | –
CC(=O)Nc1ccc(OC(=O)c2cc([N+](=O)[O-])ccc2Cl)cc1 | – | inactive: -8% [at 102 µM]
COC(=O)c1cccc(NC(=O)CN2CCN(c3ccc(OC)cc3)CC2)c1 | inconclusive: 89.1 µM [inhibitor, single point] | –
O=C(CSc1nnc(-c2ccncc2)o1)Nc1nncs1 | – | inactive: 14.7% [at 102 µM]
N/C(=N/O)c1nc(N2CCCCC2)nc(N2CCCCC2)n1 | inconclusive: 28.2 µM [inhibitor, single point] | –
Cc1ccccc1N1C(=O)CC(N2CCC(C(N)=O)CC2)C1=O (stereo unspecified) | – | inconclusive: -106% [inhibitor]
COC(=O)c1ccc(C2CC(=O)Nc3c2c(C)nn3-c2nc(C)cc(C)n2)cc1 (stereo unspecified) | – | inactive: -0.712%
N#Cc1c2n(c(=S)n(-c3ccccc3)c1=O)CCCCC2 | – | inactive: -2.93% [at 102 µM]
CC1CCCCN1C(=O)CSc1nc2ccccc2nc1Cc1ccccc1 (stereo unspecified) | – | inactive: 10.3%
CC(C)CNC(=S)N1CCN(C)CC1 | active: 3.98 µM | –
COc1ccc(-n2cc(C(=O)NCCc3ccc(C)cc3)c3ccccc3c2=O)cc1 | inconclusive: 8.91 µM [inhibitor, partial curve, poor fit] | –
CN(c1nc(-c2ccc(Br)cc2)cs1)C1CCS(=O)(=O)C1 (stereo unspecified) | inconclusive: 39.8 µM [inhibitor, partial curve, poor fit] | –
O=C(CNC(=O)c1ccc2c(c1)OCO2)N/N=C(Br)/C=C/c1ccccc1 | inconclusive: 2.82 µM [inhibitor, partial curve, poor fit] | –
COc1cc(OC)c(NC(=O)Cc2ccc(OC)c(S(=O)(=O)N3CCOCC3)c2)cc1Cl | – | inactive: -3.77% [at 102 µM]
N#C/C(=N\Nc1ccccc1Cl)C(=O)c1ccccc1 | inconclusive: 12.6 µM [inhibitor, partial curve, poor fit] | –
CN(C)CCCN(C(=O)C1COc2ccccc2O1)c1nc2ccc(F)cc2s1 (stereo unspecified) | inconclusive: 70.8 µM [inhibitor, single point] | –
c1ccc2cc(CNCc3cccc4ccccc34)ccc2c1 | – | inactive: 66.7%
CC1(c2cccc([N+](=O)[O-])c2)CC(C)(C)N(C(=O)c2ccccc2)c2ccccc21 (stereo unspecified) | inconclusive: 89.1 µM [inhibitor, single point] | –
Cc1nn(-c2ccccc2)c(Cl)c1C(=O)NCC(=O)O | inconclusive: 79.4 µM [inhibitor, partial curve, poor fit] | –
CCN(CC)c1ccc(NC(=O)CN2CCN(S(=O)(=O)c3ccc(C(C)C)cc3)CC2)cc1 | inconclusive: 3.16 µM [inhibitor, partial curve, poor fit] | –
COC(=O)Nc1ccc(S(=O)(=O)Nc2cc(C(F)(F)F)c[nH]c2=O)cc1 | inconclusive: 89.1 µM [inhibitor, single point] | –
CC(OC(=O)CCC1CCCCC1)C(=O)Nc1ccc(S(N)(=O)=O)cc1 (stereo unspecified) | active: 56.2 µM | –
